From article PMC9911399, “Two distinct binding modes provide the RNA-binding protein RbFox with extraordinary sequence specificity” come the findings set out here.

Substitutions are numbered along the chain they refer to; changes in the protein carry UniProt numbers. Some of the results follow.

T1: RBFOX1 RRM (Homo sapiens, UniProt Q9NWB1 109-208)
T1 sequence: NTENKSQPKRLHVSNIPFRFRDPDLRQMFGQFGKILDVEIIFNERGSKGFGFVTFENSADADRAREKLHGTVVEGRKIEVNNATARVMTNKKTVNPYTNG

B1: GAUCCUA (DNA:RNA)
RNA: GGGAGACCGGAAUUCAGAUUGUCCGAUCCUAUUAAAUCCCGUCGUAGCCACCA
DNA 1: CAATCTGAATTCCGGTCTCCC
DNA 2: TGGTGGCTACGACGGGATT
B2: GAUCCUU (DNA:RNA)
RNA: B1 RNA with A31U
DNA 1: CAATCTGAATTCCGGTCTCCC
DNA 2: TGGTGGCTACGACGGGATT
B3: UUAUAUA (DNA:RNA)
RNA: B1 RNA with G25U, A26U, U27A, C28U, C29A
DNA 1: CAATCTGAATTCCGGTCTCCC
DNA 2: TGGTGGCTACGACGGGATT
B4: GCUAUGA (DNA:RNA)
RNA: B1 RNA with A26C, C28A, C29U, U30G
DNA 1: CAATCTGAATTCCGGTCTCCC
DNA 2: TGGTGGCTACGACGGGATT
B5: UUGUCUG (DNA:RNA)
RNA: B1 RNA with G25U, A26U, U27G, C28U, A31G
DNA 1: CAATCTGAATTCCGGTCTCCC
DNA 2: TGGTGGCTACGACGGGATT
B6: AAUGGAU (DNA:RNA)
RNA: B1 RNA with G25A, C28G, C29G, U30A, A31U
DNA 1: CAATCTGAATTCCGGTCTCCC
DNA 2: TGGTGGCTACGACGGGATT
B7: UAGUAUG (DNA:RNA)
RNA: B1 RNA with G25U, U27G, C28U, C29A, A31G
DNA 1: CAATCTGAATTCCGGTCTCCC
DNA 2: TGGTGGCTACGACGGGATT
B8: CACAGAC (DNA:RNA)
RNA: B1 RNA with G25C, U27C, C28A, C29G, U30A, A31C
DNA 1: CAATCTGAATTCCGGTCTCCC
DNA 2: TGGTGGCTACGACGGGATT
B9: ACCCUAU (DNA:RNA)
RNA: B1 RNA with G25A, A26C, U27C, C29U, U30A, A31U
DNA 1: CAATCTGAATTCCGGTCTCCC
DNA 2: TGGTGGCTACGACGGGATT
B10: AUCGAUG (DNA:RNA)
RNA: B1 RNA with G25A, A26U, U27C, C28G, C29A, A31G
DNA 1: CAATCTGAATTCCGGTCTCCC
DNA 2: TGGTGGCTACGACGGGATT
B11: ACGGUCU (DNA:RNA)
RNA: GGGAGACCGGAAUUCAGAUUGUCCACGGUCUUUAAAUCCCGUCGUAGCCACCA
DNA 1: CAATCTGAATTCCGGTCTCCC
DNA 2: TGGTGGCTACGACGGGATT
B12: CUGGGGC (DNA:RNA)
RNA: B11 RNA with A25C, C26U, U29G, C30G, U31C
DNA 1: CAATCTGAATTCCGGTCTCCC
DNA 2: TGGTGGCTACGACGGGATT
B13: UCUUACU (DNA:RNA)
RNA: B11 RNA with A25U, G27U, G28U, U29A
DNA 1: CAATCTGAATTCCGGTCTCCC
DNA 2: TGGTGGCTACGACGGGATT
B14: UGUUUCC (DNA:RNA)
RNA: B11 RNA with A25U, C26G, G27U, G28U, U31C
DNA 1: CAATCTGAATTCCGGTCTCCC
DNA 2: TGGTGGCTACGACGGGATT
B15: CCCGAAG (DNA:RNA)
RNA: B11 RNA with A25C, G27C, U29A, C30A, U31G
DNA 1: CAATCTGAATTCCGGTCTCCC
DNA 2: TGGTGGCTACGACGGGATT
B16: UAACCAU (DNA:RNA)
RNA: B1 RNA with G25U, U27A, U30A, A31U
DNA 1: CAATCTGAATTCCGGTCTCCC
DNA 2: TGGTGGCTACGACGGGATT
B17: GUUACAG (DNA:RNA)
RNA: B1 RNA with A26U, C28A, U30A, A31G
DNA 1: CAATCTGAATTCCGGTCTCCC
DNA 2: TGGTGGCTACGACGGGATT
B18: UCGUUCC (DNA:RNA)
RNA: B11 RNA with A25U, G28U, U31C
DNA 1: CAATCTGAATTCCGGTCTCCC
DNA 2: TGGTGGCTACGACGGGATT
B19: CGGCAUC (DNA:RNA)
RNA: B1 RNA with G25C, A26G, U27G, C29A, A31C
DNA 1: CAATCTGAATTCCGGTCTCCC
DNA 2: TGGTGGCTACGACGGGATT
B20: UAUUGAC (DNA:RNA)
RNA: B1 RNA with G25U, C28U, C29G, U30A, A31C
DNA 1: CAATCTGAATTCCGGTCTCCC
DNA 2: TGGTGGCTACGACGGGATT
B21: UAUUAAU (DNA:RNA)
RNA: B1 RNA with G25U, C28U, C29A, U30A, A31U
DNA 1: CAATCTGAATTCCGGTCTCCC
DNA 2: TGGTGGCTACGACGGGATT
B22: CAAGAAC (DNA:RNA)
RNA: B11 RNA with A25C, C26A, G27A, U29A, C30A, U31C
DNA 1: CAATCTGAATTCCGGTCTCCC
DNA 2: TGGTGGCTACGACGGGATT
B23: UUCUCGG (DNA:RNA)
RNA: B1 RNA with G25U, A26U, U27C, C28U, U30G, A31G
DNA 1: CAATCTGAATTCCGGTCTCCC
DNA 2: TGGTGGCTACGACGGGATT
B24: GUAAGUU (DNA:RNA)
RNA: B1 RNA with A26U, U27A, C28A, C29G, A31U
DNA 1: CAATCTGAATTCCGGTCTCCC
DNA 2: TGGTGGCTACGACGGGATT
B25: CGGGGCC (DNA:RNA)
RNA: B11 RNA with A25C, C26G, U29G, U31C
DNA 1: CAATCTGAATTCCGGTCTCCC
DNA 2: TGGTGGCTACGACGGGATT
B26: AUUUAGA (DNA:RNA)
RNA: B1 RNA with G25A, A26U, C28U, C29A, U30G
DNA 1: CAATCTGAATTCCGGTCTCCC
DNA 2: TGGTGGCTACGACGGGATT
B27: CGUUUUC (DNA:RNA)
RNA: B1 RNA with G25C, A26G, C28U, C29U, A31C
DNA 1: CAATCTGAATTCCGGTCTCCC
DNA 2: TGGTGGCTACGACGGGATT
B28: AACAGAU (DNA:RNA)
RNA: B11 RNA with C26A, G27C, G28A, U29G, C30A
DNA 1: CAATCTGAATTCCGGTCTCCC
DNA 2: TGGTGGCTACGACGGGATT
B29: ACAUCCU (DNA:RNA)
RNA: B11 RNA with G27A, G28U, U29C
DNA 1: CAATCTGAATTCCGGTCTCCC
DNA 2: TGGTGGCTACGACGGGATT
B30: AACGGUC (DNA:RNA)
RNA: B11 RNA with C26A, G27C, U29G, C30U, U31C
DNA 1: CAATCTGAATTCCGGTCTCCC
DNA 2: TGGTGGCTACGACGGGATT
B31: UGACUCC (DNA:RNA)
RNA: B11 RNA with A25U, C26G, G27A, G28C, U31C
DNA 1: CAATCTGAATTCCGGTCTCCC
DNA 2: TGGTGGCTACGACGGGATT

In this assay the target is T1, RBFOX1 RRM. Kind of assay: EMSA; HiTS-Eq, 1 nM pool, 10 min; buffer printed only for the single-RNA assays: 10 mM Tris pH 7.5, 150 mM NaCl, 3.4 mM EDTA, 0.001% NP-40, 30 C. Particulars: tags: His6 N-terminal (pET28a); label: 5' 32P. The procedure, abridged:
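Purified RbFox RRM, wild type or mutant, was incubated for 10 min in 50 µL with 1 nM of a 5′-radiolabelled RNA pool carrying 7 randomized nucleotides, whose flanks were annealed to DNA oligonucleotides, over a series of increasing protein concentrations. Unbound RNA was resolved on 8% native PAGE, cut out, reverse-transcribed, barcoded by PCR and sequenced on an Illumina HiSeq 2500. Relative association constants were derived from changes in read counts for each RNA species versus the control reaction and normalised to the cognate motif.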
For the molecule B1, the binding signal was 0.00317 KA relative to UGCAUGU.

In the case of B2, the binding signal is 0.00605 KA relative to UGCAUGU.

Take B3: the binding signal was 0.00524 KA relative to UGCAUGU.

Regarding B4, the binding signal was 0.0158 KA relative to UGCAUGU.

Regarding B5, the binding signal was 0.0312 KA relative to UGCAUGU.

B6: the binding signal is 0.0053 KA relative to UGCAUGU.

Turning to B7, the binding signal was 0.0198 KA relative to UGCAUGU.

As for B8, the binding signal is 0.00381 KA relative to UGCAUGU.

For the molecule B9, the binding signal was 0.00141 KA relative to UGCAUGU.

Turning to B10, the binding signal is 0.00874 KA relative to UGCAUGU.

In the case of B11, the binding signal is 0.0103 KA relative to UGCAUGU.

Consider B12, for which the binding signal is 0.013 KA relative to UGCAUGU.

Consider B13, for which the binding signal was 0.00398 KA relative to UGCAUGU.

For the molecule B14, the binding signal was 0.0194 KA relative to UGCAUGU.

With B15, the binding signal is 0.0101 KA relative to UGCAUGU.

As to B16, the binding signal is 0.000622 KA relative to UGCAUGU.

As for B17, the binding signal was 0.0109 KA relative to UGCAUGU.

Consider B18, for which the binding signal was 0.00686 KA relative to UGCAUGU.

Take B19: the binding signal was 0.0161 KA relative to UGCAUGU.

As for B20, the binding signal is 0.0107 KA relative to UGCAUGU.

Regarding B21, the binding signal is 0.00844 KA relative to UGCAUGU.

Take B22: the binding signal was 0.00116 KA relative to UGCAUGU.

For B23, the binding signal is 0.0142 KA relative to UGCAUGU.

Take B24: the binding signal is 0.00979 KA relative to UGCAUGU.

Take B25: the binding signal was 0.0267 KA relative to UGCAUGU.

Regarding B26, the binding signal was 0.0108 KA relative to UGCAUGU.

For B27, the binding signal was 0.0118 KA relative to UGCAUGU.

As to B28, the binding signal is 0.00207 KA relative to UGCAUGU.

With B29, the binding signal was 0.00291 KA relative to UGCAUGU.

B30: the binding signal is 0.0046 KA relative to UGCAUGU.

Consider B31, for which the binding signal is 0.0112 KA relative to UGCAUGU.
